The source gives no read counts; variants with many changes may rest on few reads.
B1: LINE1-mini (parent)
chain: GGCAGAGCUCAACACAGCGUGGCAAAGUGGCUGUGGCUAGACUGCC

Variants of: B1
Assay: self-cleavage, relative activity (ratio to wild type); higher = more cleavage; in vitro, sequencing; the parent is a self-cleaving ribozyme

Row | Variant | self-cleavage
1 | G2U U9A A14C G44U | 0.05
2 | G1A G22A G30A C31U | 0.2
3 | G7A C15U C46A | 0.11
4 | G17U C42A C45G | 0.03
5 | A4U C23G C37U | 0.08
6 | G1U C23U C45U | 0.26
7 | A14G G27A U34G C46U | 0.26
8 | U9A G33A C46U | 0.1
9 | C3U C8A G30U | 0.18
10 | G2C C3A G27U G30U | 0.43
11 | G2A U9G A26C | 0.37
12 | C13A U20A C45G | 0.03
13 | C3G C8U G30C G36C | 0.15
14 | C10G G29U G36U | 0.02
15 | U32A G35U G40U | 0.01
16 | C3A C8A C42U C45U | 0.95
17 | C3U G5U C10U G17U A24G G40A | 0.01
18 | C15A G36C C45U | 0.01
19 | U9G G19U C23G A25C G29C | 0.05
20 | A6G A16C G30U C46U | 0.01
21 | C8G A12G C37G | 0.04
22 | C13U C15U A39U | 0.08
23 | A4G A14C G33A | 0.21
24 | G2A G5C A6U C15A G27A U38A | 0.12

Row | Variant | self-cleavage
25 | A25U G27U G30U U32C C42A | 0.06
26 | G1U C37A U38G A41G | 0
27 | U9C G17A G27A U34G G35U A39C | 0.01
28 | A16G A26U C46U | 0.45
29 | A12U G40U C45U | 0.34
30 | U9G C18A G33U A39C | 0.01
31 | G7C A11C G29C U32C G40A C46U | 0
32 | A4U U9A C46U | 0.27
33 | G2A C13U U38A C45G | 1.43
34 | G33U A41G C42A C46A | 0.03
35 | G2A U28C C46A | 0.81
36 | C8A A14G G33A C37U | 0.06
37 | C8A U9A C31U | 0.05
38 | C3G G5U U9A A41G | 0.09
39 | G5U C10G G17U | 0.01
40 | U20A G21A U34A | 0.14
41 | G5A U28A G40U | 0.05
42 | C15A G22C C31U A39C G44C | 0.01
43 | C15A G27U U28G A41C G44C | 0.03
44 | G2U A11G A12U C42A | 0.01
45 | G1C C10A G17U C37U | 0
46 | G30U G35A C45U | 0
47 | G7C G21U A25C | 0.05
48 | A11U A41U C46A | 0.02

Row | Variant | self-cleavage
49 | A11C G21A G22A G36C A41G | 0.02
50 | A14U C23U C31G | 0.05
51 | A4G C23U G36C | 0.07
52 | C18G U20A C23G G29U U43G G44U | 0.03
53 | C23A U28G G33U C45G | 0.05
54 | A14U U20G G27C A41C | 0.03
55 | C10A U38C G40C G44A | 0.04
56 | C10A G21C A26U G35U U38A | 0.01
57 | C18A G19A C31A G35U | 0.02
58 | G1U G22A G29U C31U G35U | 0.01
59 | G5C U28G G36U | 0.01
60 | G7A A26U U28G G29U | 0.14
61 | A25C G35U A41C | 0.02
62 | A6C U9A C10G C18G | 0.02
63 | C3U G7C A25U G29A C42A C45U | 0.01
64 | U9A U20C G29C U43G | 0.02
65 | A6G G17A C45A | 0.04
66 | G5C U20A U32C G36C | 0.01
67 | A11U G22U A26U | 0.03
68 | G5A A6C G21C G22U U28G G29U A41U G44U C45U | 0.03
69 | C18A A24C U28A | 0.18
70 | U9G A12G G17U C18U U20A | 0
71 | C10A U34C G36U | 0
72 | G5A C15G C31G G35U | 0.07

Row | Variant | self-cleavage
73 | A16G G21C G22C G27A G44C | 0.02
74 | G5A A11U C42U | 0.09
75 | U9A G29U C31A G33A | 0.02
76 | A11C G21C G27U U32G C37G | 0.01
77 | G2C A4C C10U C45U | 0.04
78 | G7C G17C C18U | 0.05
79 | G2A G40C G44A | 0.14
80 | C3U G17A A26U U32C | 0.4
81 | G7U A12C A14G | 0.01
82 | G7A C15G G35C C42U | 0.21
83 | C8A A11C U32C C46G | 0
84 | G27A U32G A41U C45A | 0.02
85 | C3A C8U A16G G44U | 0.28
86 | U9A C23G C37U | 0.04
87 | U9G A11G G27U C46A | 0.03
88 | C23U U28G U34C U38A | 0.26
89 | C10A G22U A26U G33A | 0
90 | A6U C8G A14C C31U | 0.05
91 | C13U C18A G30A C37G G40U C45U | 0.19
92 | U9G C13G C46G | 0.04
93 | G7A C8U A14G | 0.28
94 | C10A G27C U34G G36U | 0.02
95 | G1C C3A G21U U32C | 0.1
96 | C23A A26G U32C U38G C46G | 0.07

Row | Variant | self-cleavage
97 | G7U C13U G22C G40C | 0.55
98 | G30U A41G C46U | 0.02
99 | G2A C15G A24U A41C | 0.01
100 | A26U G35C G44U | 0.1
101 | A4G C8A A25G G27A C37G U38C A41G | 0.03
102 | G19U U28C U38G | 0.02
103 | C10A A12G U32C | 0.01
104 | G7A C15G G17U U32G G36U | 0.08
105 | G5C C31A U32G | 0.02
106 | A14G G19A C31A | 0.13
107 | G2U A4C U9C C13U A26G | 0.01
108 | C13A G35U A41G | 0.05
109 | C18A C37G U43C | 0.02
110 | G33A C37A U38A G40U | 0.03
111 | G5A G7A A12C A25U G30A G44C | 0.04
112 | G1A C13U U34G C46A | 0.03
113 | A12C G19A C31U | 0
114 | G1C U32A C42U | 0
115 | G5A C37A U38A | 0.05
116 | U9A C10U A24U G33A U34C | 0.02
117 | G5A U9A A26U U38A | 0.16
118 | G2C A12U A25U G27U U34C | 0.03
119 | A4C G17U U34A | 0.15
120 | G7A A16C G27A C45G | 0.33

Row | Variant | self-cleavage
121 | C10A U20A G21U G36U | 0.01
122 | G7U A24G G30U G33A G35U | 0.05
123 | C8G A11G C13U A26U | 0.01
124 | C8U U20G A25C | 0.09
125 | G17U U32A G33C G36C | 0.02
126 | C3G C10G U28G U32A A39U C45A | 0.02
127 | G19A U38G G44A | 0
128 | A4G G19U U20A G22C A25U | 0.35
129 | G2C G5U C15G A25G | 0.01
130 | G7C U34C C42G | 0.06
131 | C8U C18G G30A G35A | 0.16
132 | G5A A39C C42U | 0.06
133 | A12C U20G G29A U34A | 0.02
134 | A6C U9G A26U G35U | 0.03
135 | A11U U20C C23A | 0.09
136 | G17A C18U G33U G40C | 0.1
137 | G5C A12C G19A U32G G33U G36A G40U | 0.04
138 | G7U U9C U34G A39C | 0.07
139 | A6G G33A C45G | 0.02
140 | G21C A26C U34G | 0.14
141 | C18G G21U G22C | 0.93
142 | G5U C18U G33U | 0.03
143 | A6G C8U U43G C46A | 0.05
144 | G2C U20A G29U A41C | 0.06

Row | Variant | self-cleavage
145 | C3A A11C C18U | 0.04
146 | G2U C3G C13G G17U | 0.05
147 | G30U C31U U32G | 0.03
148 | G21U U38A A39U A41G | 0.65
149 | C13A C42A G44A | 0.07
150 | A26U G35A U43C | 0.03
151 | A6G C8U A12G | 0.15
152 | C10U C42A C45G | 0
153 | G2A G5A C10A G29A U38G | 0.05
154 | C8A A14G A24U G40A | 0.06
155 | G1A C3U U38C | 0.48
156 | A4U G7U A12U C42U | 0.03
157 | G2A G7A U20A A26U | 0.23
158 | C15U C18A G21A G27C C37A | 0.02
159 | G2C C10A A26C G36A | 0.03
160 | C10G G21C C23A A41U C46A | 0.02
161 | U9A C31U C45A | 0.02
162 | G1A C15G C23G U43A | 0
163 | G2C A4G A25C | 0.07
164 | G5U C13U C18U A25C U34A | 0.01
165 | C13G A14C A26G G30A | 0.07
166 | G2U C10A G33A | 0.03
167 | G21A G44U C46G | 0.13

— the RNAGym collection of RNA variant scans (doi:10.7554/elife.90254)
